Measured values reported in the supplement of paper PMC8728848.
The list shows a part of the results.

How the values were obtained:
Assay in all cases: glycan array binding signal (z-score within array); higher = stronger binding
Details in all cases: glycan notation: IUPAC condensed, linker removed
Fuc(a1-2)Gal = target: Fuc(a1-2)Gal
In short: (§1)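 From the Consortium for Functional Glycomics database, 3228 arrays were curated, keeping only those whose protein sequence was available. Binding is given as a within-array Z-score averaged across arrays sharing a protein sequence and across linkers. Negative Z-scores can be read as non-binding.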

Fuc(a1-2)Gal(b1-3)GalNAc = target: Fuc(a1-2)Gal(b1-3)GalNAc
In short: as §1

[1] = target: Fuc(a1-2)Gal(b1-3)GalNAc(a1-3)[Fuc(a1-2)]Gal(b1-4)Glc
In short: as §1

[2] = target: Fuc(a1-2)Gal(b1-3)GalNAc(a1-3)[Fuc(a1-2)]Gal(b1-4)GlcNAc
In short: as §1

[3] = target: Fuc(a1-2)Gal(b1-3)GalNAc(b1-3)Gal
In short: as §1

[4] = target: Fuc(a1-2)Gal(b1-3)GalNAc(b1-3)Gal(a1-4)Gal(b1-4)Glc
In short: as §1

[5] = target: Fuc(a1-2)Gal(b1-3)GalNAc(b1-4)[Neu5Ac(a2-3)]Gal(b1-4)Glc
In short: as §1

Fuc(a1-2)Gal(b1-3)GlcNAc = target: Fuc(a1-2)Gal(b1-3)GlcNAc
In short: as §1

[6] = target: Fuc(a1-2)Gal(b1-3)GlcNAc(b1-2)Man(a1-3)[Fuc(a1-2)Gal(b1-3)GlcNAc(b1-2)Man(a1-6)]Man(b1-4)GlcNAc(b1-4)GlcNAc
In short: as §1

[7] = target: Fuc(a1-2)Gal(b1-3)GlcNAc(b1-2)Man(a1-3)[Fuc(a1-2)Gal(b1-3)GlcNAc(b1-2)Man(a1-6)]Man(b1-4)GlcNAc(b1-4)[Fuc(a1-6)]GlcNAc
In short: as §1

[8] = target: Fuc(a1-2)Gal(b1-3)GlcNAc(b1-3)Gal(b1-4)Glc
In short: as §1

[9] = target: Fuc(a1-2)Gal(b1-3)GlcNAc(b1-3)GalNAc
In short: as §1

[10] = target: Fuc(a1-2)Gal(b1-3)GlcNAc(b1-3)[Fuc(a1-3)[Gal(b1-4)]GlcNAc(b1-6)]Gal(b1-4)Glc
In short: as §1

[11] = target: Fuc(a1-2)Gal(b1-3)GlcNAc(b1-3)[Gal(b1-4)GlcNAc(b1-6)]Gal(b1-4)Glc
In short: as §1

[12] = target: Fuc(a1-2)Gal(b1-3)GlcNAc(b1-3)[Neu5Ac(a2-6)Gal(b1-4)GlcNAc(b1-6)]Gal(b1-4)Glc
In short: as §1

[13] = target: Fuc(a1-2)Gal(b1-3)[Fuc(a1-4)]GlcNAc
In short: as §1

[14] = target: Fuc(a1-2)Gal(b1-3)[Fuc(a1-4)]GlcNAc(b1-2)Man(a1-3)[Fuc(a1-2)Gal(b1-3)[Fuc(a1-4)]GlcNAc(b1-2)Man(a1-6)]Man(b1-4)GlcNAc(b1-4)GlcNAc
In short: as §1

[15] = target: Fuc(a1-2)Gal(b1-3)[Fuc(a1-4)]GlcNAc(b1-3)[Fuc(a1-3)[Gal(b1-4)]GlcNAc(b1-6)]Gal(b1-4)Glc
In short: as §1

[16] = target: Fuc(a1-2)Gal(b1-3)[Fuc(a1-4)]GlcNAc(b1-3)[Gal(b1-4)GlcNAc(b1-6)]Gal(b1-4)Glc
In short: as §1

Fuc(a1-2)Gal(b1-4)Glc = target: Fuc(a1-2)Gal(b1-4)Glc
In short: as §1

Fuc(a1-2)Gal(b1-4)Glc6S = target: Fuc(a1-2)Gal(b1-4)Glc6S
In short: as §1

Fuc(a1-2)Gal(b1-4)GlcNAc = target: Fuc(a1-2)Gal(b1-4)GlcNAc
In short: as §1

[17] = target: Fuc(a1-2)Gal(b1-4)GlcNAc(b1-2)Man(a1-3)[Fuc(a1-2)Gal(b1-4)GlcNAc(b1-2)Man(a1-6)]Man(b1-4)GlcNAc(b1-4)GlcNAc
In short: as §1

[18] = target: Fuc(a1-2)Gal(b1-4)GlcNAc(b1-2)Man(a1-3)[Fuc(a1-2)Gal(b1-4)GlcNAc(b1-2)Man(a1-6)]Man(b1-4)GlcNAc(b1-4)[Fuc(a1-6)]GlcNAc
In short: as §1

[19] = target: Fuc(a1-2)Gal(b1-4)GlcNAc(b1-2)[Fuc(a1-2)Gal(b1-4)GlcNAc(b1-4)]Man(a1-3)[Fuc(a1-2)Gal(b1-4)GlcNAc(b1-2)Man(a1-6)]Man(b1-4)GlcNAc(b1-4)GlcNAc
In short: as §1

[20] = target: Fuc(a1-2)Gal(b1-4)GlcNAc(b1-3)Gal(b1-4)GlcNAc
In short: as §1

[21] = target: Fuc(a1-2)Gal(b1-4)GlcNAc(b1-3)Gal(b1-4)GlcNAc(b1-3)Gal(b1-4)GlcNAc
In short: as §1

[22] = target: Fuc(a1-2)Gal(b1-4)GlcNAc(b1-3)GalNAc
In short: as §1

[23] = target: Fuc(a1-2)Gal(b1-4)GlcNAc(b1-3)[Fuc(a1-2)Gal(b1-4)GlcNAc(b1-6)]GalNAc
In short: as §1

[24] = target: Fuc(a1-2)Gal(b1-4)GlcNAc6S
In short: as §1

[25] = target: Fuc(a1-2)Gal(b1-4)[Fuc(a1-3)]GlcNAc
In short: as §1

[26] = target: Fuc(a1-2)Gal(b1-4)[Fuc(a1-3)]GlcNAc(b1-2)Man(a1-3)[Fuc(a1-2)Gal(b1-4)[Fuc(a1-3)]GlcNAc(b1-2)Man(a1-6)]Man(b1-4)GlcNAc(b1-4)GlcNAc
In short: as §1

[27] = target: Fuc(a1-2)Gal(b1-4)[Fuc(a1-3)]GlcNAc(b1-2)[Fuc(a1-2)Gal(b1-4)[Fuc(a1-3)]GlcNAc(b1-4)]Man(a1-3)[Fuc(a1-2)Gal(b1-4)[Fuc(a1-3)]GlcNAc(b1-2)Man(a1-6)]Man(b1-4)GlcNAc(b1-4)GlcNAc
In short: as §1

[28] = target: Fuc(a1-2)Gal(b1-4)[Fuc(a1-3)]GlcNAc(b1-3)Gal(b1-4)[Fuc(a1-3)]GlcNAc
In short: as §1

[29] = target: Fuc(a1-2)Gal(b1-4)[Fuc(a1-3)]GlcNAc(b1-3)Gal(b1-4)[Fuc(a1-3)]GlcNAc(b1-3)Gal(b1-4)[Fuc(a1-3)]GlcNAc
In short: as §1

[30] = target: Fuc(a1-2)Gal(b1-4)[Fuc(a1-3)]GlcNAc(b1-3)GalNAc
In short: as §1

Fuc(a1-2)Gal6S(b1-4)Glc = target: Fuc(a1-2)Gal6S(b1-4)Glc
In short: as §1

[31] = target: Fuc(a1-2)Gal6S(b1-4)Glc6S
In short: as §1

[32] = target: Fuc(a1-2)Gal6S(b1-4)GlcNAc
In short: as §1

Fuc(a1-2)[Gal(a1-3)]Gal = target: Fuc(a1-2)[Gal(a1-3)]Gal
In short: as §1

[33] = target: Fuc(a1-2)[Gal(a1-3)]Gal(b1-3)GalNAc
In short: as §1

[34] = target: Fuc(a1-2)[Gal(a1-3)]Gal(b1-3)GlcNAc
In short: as §1

[35] = target: Fuc(a1-2)[Gal(a1-3)]Gal(b1-3)GlcNAc(b1-2)Man(a1-3)[Fuc(a1-2)[Gal(a1-3)]Gal(b1-3)GlcNAc(b1-2)Man(a1-6)]Man(b1-4)GlcNAc(b1-4)GlcNAc
In short: as §1

[36] = target: Fuc(a1-2)[Gal(a1-3)]Gal(b1-3)GlcNAc(b1-2)Man(a1-3)[Fuc(a1-2)[Gal(a1-3)]Gal(b1-3)GlcNAc(b1-2)Man(a1-6)]Man(b1-4)GlcNAc(b1-4)[Fuc(a1-6)]GlcNAc
In short: as §1

[37] = target: Fuc(a1-2)[Gal(a1-3)]Gal(b1-3)GlcNAc(b1-3)GalNAc
In short: as §1

B1: PpFlo3 (Pichia pastoris) (protein)
chain: MGSSHHHHHHSSGLVPRGSHMQESGNGTTSDTAYACDIGATPFDGFNATIYQYQASDDNSIQDPVFMSTGYLQRNQLHSTTGVTNPGFNIFTAGVATTTLYGIPNVNYQNMLLELKGYFRADASGNYGLSLRNIDDSAILFFGRETAFECCNENLIPLDEAPTDYSLFTIKEGEASTNPDSYTYTQYLEAGRYYPVRTFFANIRTRAVFNFTMTLPDGSELTDFQNYIFQFGALNQ
- glycan array binding signal (z-score) (Fuc(a1-2)Gal): -0.25
- glycan array binding signal (z-score) (Fuc(a1-2)Gal(b1-3)GalNAc): -0.256
- glycan array binding signal (z-score) [1]: -0.304
- glycan array binding signal (z-score) [2]: -0.217
- glycan array binding signal (z-score) [3]: -0.306
- glycan array binding signal (z-score) [4]: -0.282
- glycan array binding signal (z-score) [5]: -0.228
- glycan array binding signal (z-score) (Fuc(a1-2)Gal(b1-3)GlcNAc): 2.71
- glycan array binding signal (z-score) [6]: -0.268
- glycan array binding signal (z-score) [7]: -0.286
- glycan array binding signal (z-score) [8]: -0.263
- glycan array binding signal (z-score) [9]: -0.269
- glycan array binding signal (z-score) [10]: -0.201
- glycan array binding signal (z-score) [11]: -0.088
- glycan array binding signal (z-score) [12]: -0.208
- glycan array binding signal (z-score) [13]: -0.299
- glycan array binding signal (z-score) [14]: -0.245
- glycan array binding signal (z-score) [15]: -0.253
- glycan array binding signal (z-score) [16]: -0.259
- glycan array binding signal (z-score) (Fuc(a1-2)Gal(b1-4)Glc): -0.287
- glycan array binding signal (z-score) (Fuc(a1-2)Gal(b1-4)Glc6S): -0.1
- glycan array binding signal (z-score) (Fuc(a1-2)Gal(b1-4)GlcNAc): -0.242
- glycan array binding signal (z-score) [17]: -0.257
- glycan array binding signal (z-score) [18]: -0.263
- glycan array binding signal (z-score) [19]: -0.253
- glycan array binding signal (z-score) [20]: -0.285
- glycan array binding signal (z-score) [21]: -0.064
- glycan array binding signal (z-score) [22]: -0.281
- glycan array binding signal (z-score) [23]: 0.015
- glycan array binding signal (z-score) [24]: -0.289
- glycan array binding signal (z-score) [25]: 4.84
- glycan array binding signal (z-score) [26]: -0.268
- glycan array binding signal (z-score) [27]: -0.29
- glycan array binding signal (z-score) [28]: -0.244
- glycan array binding signal (z-score) [29]: 4.32
- glycan array binding signal (z-score) [30]: -0.241
- glycan array binding signal (z-score) (Fuc(a1-2)Gal6S(b1-4)Glc): -0.279
- glycan array binding signal (z-score) [31]: -0.178
- glycan array binding signal (z-score) [32]: -0.137
- glycan array binding signal (z-score) (Fuc(a1-2)[Gal(a1-3)]Gal): 0.402
- glycan array binding signal (z-score) [33]: -0.291
- glycan array binding signal (z-score) [34]: -0.205
- glycan array binding signal (z-score) [35]: -0.259
- glycan array binding signal (z-score) [36]: -0.284
- glycan array binding signal (z-score) [37]: -0.269
